# According to the supplement of paper PMC3334620:
# Whole data set: some 33,000 sequences, median “E-score (-0.5 to 0.5)” near -0.035, cut for the highest 2% near 0.35. The list shows a part of the results.
# Molecular target: T1, Pdr3 (UniProt P33200)
# T1 sequence: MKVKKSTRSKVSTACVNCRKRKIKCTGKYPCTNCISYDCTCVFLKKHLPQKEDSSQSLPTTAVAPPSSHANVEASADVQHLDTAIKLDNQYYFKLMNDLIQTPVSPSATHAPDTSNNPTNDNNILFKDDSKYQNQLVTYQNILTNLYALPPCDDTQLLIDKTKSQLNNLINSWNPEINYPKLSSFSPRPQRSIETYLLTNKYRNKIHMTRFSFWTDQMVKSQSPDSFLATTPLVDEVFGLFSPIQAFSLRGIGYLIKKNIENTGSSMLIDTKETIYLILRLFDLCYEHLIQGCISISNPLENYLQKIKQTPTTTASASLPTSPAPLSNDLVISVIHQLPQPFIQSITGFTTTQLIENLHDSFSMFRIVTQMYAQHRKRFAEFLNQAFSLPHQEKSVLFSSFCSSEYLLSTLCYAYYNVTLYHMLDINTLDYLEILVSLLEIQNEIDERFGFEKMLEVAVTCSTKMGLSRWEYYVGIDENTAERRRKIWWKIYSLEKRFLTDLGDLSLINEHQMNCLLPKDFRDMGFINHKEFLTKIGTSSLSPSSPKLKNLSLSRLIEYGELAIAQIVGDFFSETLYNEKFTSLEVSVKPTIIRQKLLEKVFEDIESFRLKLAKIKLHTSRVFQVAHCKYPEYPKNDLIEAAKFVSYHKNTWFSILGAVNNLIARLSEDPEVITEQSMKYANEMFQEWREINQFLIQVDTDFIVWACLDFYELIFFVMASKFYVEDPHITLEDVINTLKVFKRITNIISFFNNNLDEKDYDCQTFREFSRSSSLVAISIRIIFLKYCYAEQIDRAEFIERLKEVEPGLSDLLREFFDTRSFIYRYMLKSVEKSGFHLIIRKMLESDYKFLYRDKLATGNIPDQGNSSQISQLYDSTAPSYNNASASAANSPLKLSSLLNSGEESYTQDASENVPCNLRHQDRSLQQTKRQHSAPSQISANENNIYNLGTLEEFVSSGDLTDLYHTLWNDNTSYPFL
# Assay: PBM E-score (8-mer binding enrichment) (E-score (-0.5 to 0.5)); higher = stronger / more preferred TF binding; most listed sequences are background and not binding sites
# Conditions: protein concentration: 200 nM; construct: GST-full length
# Description: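 Universal 'all 10-mer' protein binding microarrays (Agilent AMADID 015681) probed with GST-tagged S. cerevisiae TFs (full-length or DBD) made by in vitro transcription/translation (PURExpress), about 100-200 nM. Bound TF was detected with fluorescent anti-GST. Each ungapped 8-mer (which stands for itself and its reverse complement) is scored by the PBM enrichment score (E-score), a modified Wilcoxon-Mann-Whitney statistic from -0.5 to +0.5, computed with the Universal PBM Analysis Suite. Scale: above 0.35 generally sequence-specific binding.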
row,Sequence,PBM E-score
1,AAAGGGGG,-0.235
2,TTGACAAA,-0.0749
3,CGTCCATA,-0.00531
4,GCGGTATA,0.137
5,GGCCACCA,0.167
6,CGGAATTA,0.43
7,AGAGCAAG,0.0901
8,ACACGAGT,0.00719
9,AGAGATCC,0.117
10,CTAGCCGC,0.0335
11,CCACTTAC,0.0485
12,GGCGCGCC,0.302
13,ACTACAAT,0.131
14,ATTGCAAG,-0.0528
15,AGATCACA,-0.0938
16,AAGGCTAT,-0.191
17,AGGCAGAA,-0.0494
18,CCCGAAAG,0.193
19,CATGTGGC,-0.0621
20,CGATCTAC,-0.00638
21,GTTGCTAA,0.112
22,CTGTGAAG,-0.22
23,CCCTGTGA,-0.229
24,CCTGTTAC,-0.065
25,CGAACAGC,-0.095

row,Sequence,PBM E-score
1,ATTTCCCA,0.0046
2,ATAACACG,0.0432
3,AGGCATCC,-0.138
4,GGAAGTTA,0.191
5,AATCAAAC,0.108
6,GGTTCATA,-0.0681
7,CCCCCCGG,0.132
8,GCCAATTA,-0.0574
9,ACGTTTAG,-0.205
10,CGTGTGTC,0.051
11,ATGCTTCG,0.118
12,ACAGGATC,-0.21
13,CCCAATTA,-0.0104
14,CCACATGA,-0.115
15,GAAGTGAC,-0.126
16,CGAAGGGC,0.0348
17,CTCACGTC,0.00422
18,CGGGACTA,0.208
19,GAAACGAA,0.0452
20,AAAATATG,0.184
21,GGCCTTAC,-0.00456
22,CGGGCGGA,0.383
23,AAAGATAA,-0.0995
24,CTTATCAC,-0.103
25,GGATGCGA,-0.114

row,Sequence,PBM E-score
1,AGGAAACT,-0.0843
2,ACCCTATA,-0.214
3,ATTCCATC,0.163
4,CTACAGGA,-0.206
5,AAATGATC,0.0429
6,CGGGCTCC,0.21
7,CAGGACCG,-0.0353
8,ATCTGGTC,-0.051
9,TGATGCAA,0.0131
10,GACAAACA,0.0268
11,TGCCGACA,0.123
12,CCATTGTA,0.0567
13,TACAAGCA,0.0636
14,AATGCACT,-0.123
15,ACGTATAT,-0.138
16,CCCGAAAC,0.134
17,ATGATAGC,0.0662
18,GAAAGTCA,0.00875
19,AAAGCCCA,0.0889
20,AAGAATTA,-0.0831
21,ACCCGGAA,0.456
22,CTGAAGGC,-0.334
23,TATTTAGA,-0.00689
24,GTCTAGAA,-0.0614
25,CATCCCCG,0.354

row,Sequence,PBM E-score
1,CAAAATTC,0.234
2,GCACCAGA,-0.12
3,AGCCGCAA,0.0204
4,CCGCTTTC,0.185
5,ACAATAAT,0.104
6,CGACCTCG,0.135
7,TCACGAGA,-0.177
8,ACTGAAGC,-0.064
9,CACTCCTG,-0.115
10,GCGTTAGA,0.00545
11,AATTAACG,0.0424
12,ATTACCTC,-0.0445
13,AACGCGAC,-0.0622
14,ATGCAAAG,-0.0888
15,GGGCTTCA,0.0122
16,ATAGTCAG,-0.177
17,CAAACGCG,0.0879
18,AGTACGCG,0.032
19,GACTCGGC,0.0537
20,GCGTAATA,-0.0851
21,TATCCCCA,0.0301
22,GAATAGTC,-0.00574
23,GTTCAATA,-0.0115
24,AAGATCCA,0.0854
25,CTTTCTTA,-0.11

row,Sequence,PBM E-score
1,CTTCCGGA,0.451
2,GTAAACAA,-0.0232
3,CGCCATCC,0.0558
4,ATGGGAAA,-0.0929
5,CACTCCAA,-0.0406
6,CAAAAGTC,-0.0529
7,ATAGCTCC,-0.198
8,GCTATACA,-0.126
9,ACCATAGT,0.14
10,GTGTCTTA,-0.183
11,AATTTACA,-0.353
12,AGTATACG,-0.127
13,CCCCTTAC,-0.128
14,CAATAGCA,-0.11
15,ACTACGCC,-0.00804
16,ATAACATC,-0.0859
17,GCTTACGA,-0.292
18,CGTCTCAA,0.0219
19,AAAGAAAA,-0.00648
20,GTAATAGA,-0.0517
21,ATTCTAAC,-0.187
22,CCCTCCCA,0.125
23,AACAAGTA,-0.229
24,AACCTCTG,-0.0897
25,TGGCGCCA,0.154

row,Sequence,PBM E-score
1,ACTGGGTC,-0.203
2,GGAAAGAA,0.222
3,ATGGTATA,-0.0858
4,TGCGCCAA,0.053
5,CGGGGTCA,0.132
6,CCTGGGAC,-0.266
7,ATATAAAC,-0.0835
8,CGCACGGC,0.142
9,AGTCGGCC,0.13
10,GGGTTTAA,-0.0139
11,GTTGCGAA,-0.0664
12,TCGGGCAA,0.0636
13,AGACAGCG,-0.199
14,GTCGGTAA,0.0395
15,ACATTCAG,-0.133
16,AGCCAGTA,0.041
17,AAATAAAA,-0.0324
18,TAGATATA,0.128
19,GAGGAATC,0.0228
20,AATACAAC,0.0861
21,AATAACCA,-0.185
22,CTTACCAC,-0.138
23,ATGATTAC,-0.0869
24,AGCTCCTC,-0.195
25,CCGTGCCC,0.148

row,Sequence,PBM E-score
1,AAACGAGT,0.0128
2,AACGATGC,-0.199
3,AGTTTCAA,-0.0893
4,CTCAATGC,-0.133
5,ATGTTGAA,0.0485
6,CGACTTGC,-0.089
7,TACAGCTA,-0.249
8,CGTGAAAC,-0.0489
9,ACAATGAT,-0.0614
10,GTGAGGAA,-0.0729
11,ACGCAAAT,0.0221
12,TCCACGAA,-0.0449
13,GACATTAA,-0.00233
14,CCCCACGA,-0.0538
15,CATGAGGA,-0.0207
16,GCGTCGTA,0.0914
17,CCTGCAGA,-0.0209
18,AACCGCCC,0.0936
19,CACAATGC,0.0401
20,GTTTGTAA,-0.0823
21,CCCAGATC,-0.145
22,ACATTCTG,-0.243
